Source: PubChem BioAssay AID2147 (National Center for Advancing Translational Sciences (NCATS), 2009)
The whole screen tested about 230,000 compounds, of which about 3,600 (1.6%) were called active. This list was built around the results that the source calls inconclusive (neither active nor inactive); the mix of calls is not that of the screen. Calls come from the whole dose curve; as a rule, active = well fitted inhibition curve with a large enough effect (not every such curve was filed as active); inconclusive = small, poorly fitted or top-dose-only effect, or another doubt; inactive = no such curve, though single readings can be large or run the other way. Potencies beside an inconclusive call are fits to weak or partial responses and may not hold up.

molecular target: Lysine-specific demethylase 4E (Homo sapiens) (UniProt B2RXH2); test: qHTS Assay for Inhibitors of Human Jumonji Domain Containing 2E (JMJD2E); details: JMJD2E catalytic domain, FDH-coupled NADH fluorescence (FDH is formaldehyde dehydrogenase); series mostly up to 57.1 µM
Note: nearly all actives have a fitted effect of over 50% in size.
Potency is the fitted concentration of half-maximal effect; tags give direction and shape of the fitted curve.

Chain of UniProt B2RXH2 (B2RXH2 whole entry, looked up, the tested form may be a part): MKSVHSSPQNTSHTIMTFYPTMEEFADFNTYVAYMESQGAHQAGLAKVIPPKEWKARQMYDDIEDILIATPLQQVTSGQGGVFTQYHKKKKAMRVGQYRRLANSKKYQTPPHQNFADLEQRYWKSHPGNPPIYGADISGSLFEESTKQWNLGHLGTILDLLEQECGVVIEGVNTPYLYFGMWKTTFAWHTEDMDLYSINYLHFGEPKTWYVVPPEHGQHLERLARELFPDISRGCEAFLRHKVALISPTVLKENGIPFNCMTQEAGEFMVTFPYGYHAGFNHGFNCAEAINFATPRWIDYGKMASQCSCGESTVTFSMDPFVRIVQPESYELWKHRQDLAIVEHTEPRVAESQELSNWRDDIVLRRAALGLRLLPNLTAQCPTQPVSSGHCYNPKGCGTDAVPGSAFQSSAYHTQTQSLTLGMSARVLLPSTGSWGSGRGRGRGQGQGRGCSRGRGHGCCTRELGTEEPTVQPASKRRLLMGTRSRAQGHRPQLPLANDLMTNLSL

Row | SMILES | Potency
1 | COc1cc(/C=N/NC(=O)CCN2CCCCC2)ccc1O | inconclusive: 39.8 µM [inhibitor, single point]
2 | COc1ccc(NC(=O)CSc2nccn2-c2ccccc2)c(OC)c1 | inactive
3 | COc1ccc(C2C(C(=O)N3CCOCC3)=C(C)NC3=C2C(=O)CC(C)(C)C3)c(OC)c1 (stereo not drawn) | inconclusive: 31.6 µM [inhibitor, partial curve]
4 | O=C(Nc1ccccc1)c1ccc2ccccc2n1 | inactive
5 | COc1ccc(-n2c(N)c(C(=O)NCc3ccco3)c3nc4ccccc4nc32)cc1 | inconclusive: 25.1 µM [inhibitor, partial curve]
6 | C[C@H]1C=C2C=C[C@H](C)[C@H](CC[C@@H]3C[C@@H](O)CC(=O)O3)[C@H]2[C@@H](OC(=O)[C@@H](C)CCO)C1 | inactive
7 | O=C(NC1CCCCC1)c1cc2nc(-c3ccco3)cc(C(F)(F)F)n2n1 | inconclusive: 7.94 µM [inhibitor, full curve]
8 | CCN(CC)S(=O)(=O)c1ccc(NC(=O)C2c3ccccc3Oc3ccccc32)cc1 | inactive
9 | Cc1c(Cc2ccc3c(c2)OCO3)sc(NC(=O)c2ccccc2)c1C(N)=O | inconclusive: 35.5 µM [inhibitor, partial curve]
10 | Cc1ccc(C(=O)N2C(=O)c3cccc(N)c3C2=O)o1 | inconclusive: 17.8 µM [inhibitor, single point]
11 | COC(=O)Cc1c(C)c2ccc(OC(C)C)cc2oc1=O | inconclusive: 28.2 µM [inhibitor, partial curve]
12 | O=c1c2ccccc2sn1-c1nccs1 | active: 7.94 µM
13 | CCOC(=O)C1CCN(Cc2ccc(OC)cc2OC)CC1 | inactive
14 | Cn1c(=O)n(C)c2cc(/C=N/n3cnnc3)ccc21 | inconclusive: 28.2 µM [inhibitor, partial curve]
15 | C=CCSc1nc(-c2ccc3c(c2)OCO3)cc(C(F)(F)F)c1C#N | inconclusive: 0.891 µM [inhibitor, full curve]
16 | COC(=O)C1CCN(C(=O)c2cc(=O)[nH]c3ccccc23)CC1 | inconclusive: 25.1 µM [inhibitor, partial curve]
17 | Cc1nc2nc(-c3ccccc3)[nH]n2c(=O)c1C | inconclusive: 39.8 µM [inhibitor, single point]
18 | Cc1cc(SCC(=O)Nc2ccc(O)cc2)n2ncc(-c3ccccc3)c2n1 | inconclusive: 39.8 µM [inhibitor, single point]
19 | O=C(O)/C=C/c1cccnc1 | inactive
20 | C=CCNC(=S)N1CCN(c2ccc([N+](=O)[O-])cc2)CC1 | inactive
21 | Cn1c(NC(=O)c2cccnc2)nc2ccccc21 | inconclusive: 39.8 µM [inhibitor, single point]
22 | NS(=O)(=O)c1ccc(CCNC(=O)c2ccc3nc4ccc(Cl)cc4c(=O)n3c2)cc1 | inconclusive: 31.6 µM [inhibitor, partial curve]
23 | O=C(O)c1cccc(N2C(=O)Nc3ccccc3N2O)c1 | inconclusive: 28.2 µM [inhibitor, partial curve]
24 | CC(C)(C)c1cn(-c2ccc(Cl)cc2)c(=S)[nH]1 | inactive

Row | SMILES | Potency
25 | O=C1C(Cl)=C(NC2CCc3ccccc32)C(=O)c2ncccc21 (stereo not drawn) | active: 5.01 µM
26 | CC1CCN(c2c(NCC3CCC(C(=O)N4CCCC(C)C4)CC3)c(=O)c2=O)CC1 (stereo not drawn) | inactive
27 | Fc1ccc(-c2nnc(CSc3nnc(-c4cccs4)o3)o2)cc1 | inactive
28 | Cc1cc(C)cc(C(=O)NCC(=O)OCC(=O)N(C)C2CCS(=O)(=O)C2)c1 (stereo not drawn) | inactive
29 | COc1cccc(CCc2nnc(CCC(=O)N3CCN(Cc4ccccn4)CC3)o2)c1 | inconclusive: 25.1 µM [inhibitor, single point]
30 | Cc1onc(-c2ccccc2Cl)c1C(=O)Nc1cccc(-c2nc3ncccn3c2C)c1 | inconclusive: 28.2 µM [inhibitor, partial curve]
31 | C[C@@H]1CC=C[C@H]2[C@H]1C(=O)N(Cc1ccccc1)[C@H]2c1ccc(F)c(/C=C/c2ccccc2)c1 | inconclusive: 31.6 µM [inhibitor, partial curve]
32 | CC(CC(=O)Nc1ccccc1)n1ccnc1 (stereo not drawn) | inconclusive: 39.8 µM [inhibitor, single point]
33 | CC1CCN(S(=O)(=O)c2ccc(Cl)cc2Br)CC1 | inactive
34 | Cc1cccc(N(CC(=O)N2CCCC2)S(=O)(=O)c2ccccc2)c1C | inactive
35 | Cc1nc(N2CCOCC2)c2nc(-c3ccccc3)n(CC(C)(C)CN(C)C)c2n1 | inconclusive: 25.1 µM [inhibitor, partial curve]
36 | COc1ccccc1CC(=O)NCc1csc(-c2cccs2)n1 | inconclusive: 39.8 µM [inhibitor, single point]
37 | COc1cc2c(C#N)c(N3CCN(C)CC3)nc(N)c2c(N)n1 | inconclusive: 25.1 µM [inhibitor, partial curve]
38 | COc1cc(/C=C2\SC(=N)N(c3ccc4c(c3)OCO4)C2=O)cc(OC)c1O | inactive
39 | COC(=O)c1cc2c(s1)-c1cc(F)ccc1OC2 | inconclusive: 11.2 µM [inhibitor, partial curve]
40 | CNCCCCCCCCSc1nc(C(C)C)ccc1C(=O)c1cccs1 | inconclusive: 31.6 µM [inhibitor, partial curve]
41 | C=CCSC1=N/C(=C\C=C\c2ccco2)C(=O)S1 | inconclusive: 25.1 µM [inhibitor, single point]
42 | Cc1cc(C)n2cc(CSc3ccc(Cl)cc3)nc2n1 | inconclusive: 35.5 µM [inhibitor, single point]
43 | NNc1nc2c(F)cccc2s1 | inactive
44 | COc1ccc(N=c2oc3cc(O)ccc3cc2C(=O)NCC2CCCO2)cc1 (stereo not drawn) | inconclusive: 31.6 µM [inhibitor, partial curve]
45 | COc1ccc(-c2csc(NC(=O)c3ccoc3C)n2)cc1 | inactive
46 | CCCCNc1c2c3c(cccc3n(C)c1=O)C(=O)c1ccccc1-2 | inactive
47 | Cc1csc(N/N=C\c2cccnc2)n1 | inconclusive: 39.8 µM [inhibitor, single point]
48 | O=C1c2ccccc2C(=O)N1CCc1nc2ccccc2c(=O)n1-c1ccccn1 | inactive
